Measurements reported in PubChem BioAssay AID1347073 (National Center for Advancing Translational Sciences (NCATS), 2019).
In all, about 45,000 compounds went through this assay and about 200 (0.44%) were called active. Another 7% or so got no clear call; they are omitted. Calls follow the shape of the dose curve; as a rule, active = well fitted activation curve with a large enough effect; inconclusive = small, poorly fitted or top-dose-only effect; inactive = no such curve, though single readings can be large or run the other way. The list shows a part of the results.

Experiment: qHTS of TDP-43 Inhibitors: NCGC Sytravon Library Screen; also: 0% is about no effect; nearly all actives have a fitted effect of over 55% in size
Details: yeast TDP-43 toxicity rescue, BacTiter-Glo growth, 24 h; series mostly up to 46.1 µM; growth rescue (activation): at the top concentration
Outline: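 TDP-43-expressing yeast, pregrown in raffinose, seeded at OD600 0.02 in galactose medium with compound for 24 hr at 30 deg C. Growth read by BacTiter-Glo luminescence, so rescue of toxicity appears as activation.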

Row | SMILES | growth rescue (activation)
1 | Cc1cccc(C)c1NC(=O)c1cccc(COc2cc(Cl)ccc2Cl)c1 | inactive: 13.1%
2 | CC1CN(S(=O)(=O)c2cccc(C(F)(F)F)c2)CN1C(=O)N1CCOCC1 (centres undefined) | inactive: 3.26%
3 | O=C(O)c1ccc(Cl)c(S(=O)(=O)N(Cc2ccccc2)c2ccccc2)c1 | inactive: 15.1%
4 | O=Cc1ccc(-c2cccc(C(=O)O)c2)o1 | inactive: 6.65%
5 | COc1ccccc1N(CC(=O)NCCc1ccccc1)C(=O)CCC(=O)Nc1ccccn1 | inactive: 3.14%
6 | Cc1cccc(C)c1Nc1c(-c2ccccc2O)nc2ncccn12 | inactive: 5.23%
7 | Cc1ccccc1CNC(=O)c1ccc2c(c1)N(Cc1ccccc1)CCS2 | inactive: 2.13%
8 | CCOC(=O)C(C)/C(C)=N\Nc1ccc([N+](=O)[O-])cc1[N+](=O)[O-] (centres undefined) | inactive: 31.3%
9 | CCOc1ccc(NC(=O)COC(=O)C2C3CC4OC(=O)C2C4C3)cc1 (centres undefined) | inactive: 2.11%
10 | CC(=O)NNc1nc(-c2ccccc2)cs1 | inactive: 6.03%
11 | CC(=O)c1sc(NC(=O)c2c(F)cccc2F)nc1-c1ccccc1 | inactive: -6.47%
12 | CCC(=O)c1ccc(OCC(=O)NCCc2ccccn2)cc1 | inactive: 18.3%
13 | Cc1cccn2c(=O)c3cc(C(=O)NCC4CCCO4)c(=N)n(C4CCCCC4)c3nc12 (centres undefined) | inactive: -11.9%
14 | COc1cc(/C=N/NC(=O)Cc2cccs2)c([N+](=O)[O-])cc1OC | inactive: -13.3%
15 | COc1ccc(S(=O)(=O)N2CCCN(CC(=O)Nc3ccccc3F)CC2)cc1 | inactive: -24.3%
16 | COc1cccc(OCc2nn3c(=O)c(-c4ccccc4)nnc3s2)c1 | inactive: 9.71%
17 | Cc1ccc(SCC(=O)NNC(=O)CNC(=O)c2ccccc2F)cc1 | inactive: -0.268%
18 | CCCCCCCC(=O)Nc1ccc(C(=O)N/N=C/c2cccc([N+](=O)[O-])c2)cc1 | inactive: 18.6%
19 | Cc1nn(CC(=O)NCc2ccccc2Br)c(=O)c2cc3occc3n12 | inactive: -0.81%
20 | N#C/C(=C\c1ccc(F)cc1)C(=O)NC1CCS(=O)(=O)C1 (centres undefined) | inactive: -2.53%
21 | COc1ccc(C)cc1NC(=O)c1ccc(S(=O)(=O)N2CCCCC2)cc1 | inactive: 33.9%
22 | COc1ccc(S(=O)(=O)Nc2ccc(Cl)cn2)cc1 | inactive: 24.7%

Row | SMILES | growth rescue (activation)
23 | COc1ccc2nc(N/C(N)=N/C(=S)Nc3c(C)cccc3C)nc(C)c2c1 | inactive: 19%
24 | CNc1oc(/C=C/c2cc(OC)c(OC)c(OC)c2)nc1C#N | inactive: 26.4%
25 | Nc1ccccc1SCC(=O)Nc1ccc2c(c1)OCCO2 | inactive: 4.64%
26 | COc1ccc(/C=C(\NC(=O)c2ccc([N+](=O)[O-])cc2)C(=O)N2CCOCC2)cc1 | inactive: -8.21%
27 | COC(=O)Cc1ccc(NC(=S)NCc2ccc(S(N)(=O)=O)cc2)cc1 | inactive: 0.402%
28 | COCCN1C[C@@H](CO)O[C@@H](n2cnc3c(N(C)C)ncnc32)C1 | inactive: -11.4%
29 | Cn1c(CN2CCCCC2)nc2cc(NC(=O)c3ccc(Cl)cc3)ccc21 | inactive: 4.87%
30 | Cc1ccc2nc(NC(=O)CS(=O)(=O)Cc3ccccc3)sc2c1 | inactive: 29.6%
31 | CCCOc1ccc(/C=N/NC(=O)C2CC2)c(OCCC)c1 | inactive: 22.7%
32 | COc1cccc(C(=O)NC(=S)N2c3ccccc3CC2C)c1OC (centres undefined) | inactive: 24.2%
33 | Cc1c(NC(=O)CN2CCC(C(N)=O)CC2)cccc1[N+](=O)[O-] | inactive: 0.809%
34 | Cc1cc(C)nc(Nc2nc(=O)c3ccccc3s2)n1 | inactive: 6.97%
35 | C=CCn1c(C)cc(C2=NNC(=Nc3ccc(C)cc3)SC2)c1C | inactive: -3.86%
36 | CCOC(=O)c1[nH]c(C)c(C(=O)N2CCN(c3ccccc3OC)CC2)c1C | inactive: 5.57%
37 | O=C(NCc1cccc(C(F)(F)F)c1)c1csc([C@H]2C[C@H](O)[C@@H](CO)O2)n1 | inactive: -4.23%
38 | COc1ccc(CN2CC(=O)N(c3cccc(Cl)c3)C2=S)cc1OC | inactive: 24.4%
39 | O=C(CSc1nc2ccc(NC(=O)c3ccccc3C(=O)O)cc2s1)Nc1c(Cl)cccc1Cl | inactive: 18.1%
40 | O=c1[nH]c2ccccc2nc1/C=C/c1ccc(O)cc1 | inactive: -5.62%
41 | COc1ccc(NC(=S)Nc2ccc(S(N)(=O)=O)cc2)c(C)c1 | inactive: 0.835%
42 | O=C(CCn1cnnn1)NC1CCCN(Cc2ccccc2F)C1 (centres undefined) | inactive: 8.15%
43 | Cc1ccc(-n2nnc3c(=O)n(CC(N)=O)cnc32)cc1 | inactive: 3.67%
44 | Cc1cccc(N2CC(C(=O)Nc3nc4ccc(S(C)(=O)=O)cc4s3)CC2=O)c1C (centres undefined) | inactive: 2.19%

Row | SMILES | growth rescue (activation)
45 | Cc1ccccc1CCN(C(=O)c1csnn1)C(C(=O)NC1CCCC1)c1ccncc1 (centres undefined) | inactive: -23.9%
46 | O=S(=O)(Nc1nccs1)c1cnc(Cl)c(Br)c1 | inactive: 19.1%
47 | COC(=O)c1ccc(C(NC(=O)c2cccnc2)NC(=O)c2cccnc2)cc1 | inactive: -1.07%
48 | Cc1cnc(C(=O)OCC(=O)NC(C)CCc2ccccc2)cn1 (centres undefined) | inactive: 9.15%
49 | Cc1cc(C(=O)NCCc2ccc(S(N)(=O)=O)cc2)c(C)o1 | inactive: -25.6%
50 | CCOC(=O)c1sc(NC(=O)CCN2CCCCCC2)c(C(=O)OCC)c1C | inactive: -16.5%
51 | CC(=O)c1cccc(NC(=O)N2CCCC2C(=O)Nc2cccc(C)c2)c1 (centres undefined) | inactive: 25.8%
52 | Cc1cc(NC(=O)CSc2nccn2C)no1 | inactive: -17.3%
53 | COc1ccc(C(=O)N2C(=S)NC(=O)/C2=C\c2ccc(C)cc2)cc1 | inactive: 7.65%
54 | CCCCNC(=O)COC(=O)c1ccccc1F | inactive: 20%
55 | N#Cc1c(Nc2ccccc2)c(C=O)c[nH]c1=O | inactive: 6.59%
56 | CCc1nc2c(OCCOc3ccc(F)cc3)cccn2c1N(C)C(=O)c1ccc(OC)cc1 | inactive: 5.42%
57 | CCNC(=O)CSc1nc(-c2ccc(F)cc2)cs1 | inactive: 18.2%
58 | N#CCCN(C(=O)CSc1ccc2c(c1)OCCO2)c1ccc(F)cc1 | inactive: 16.7%
59 | CCn1ncc(CN2CCC(Oc3cc(C(=O)NC4CC4)ccc3OC)CC2)c1C | inactive: 4.47%
60 | COc1ccc(C(=O)COC(=O)c2nn(C)cc2Cl)cc1 | inactive: 2.29%
61 | O=C(Nc1ccccc1)Nc1cccn(Cc2c(F)cccc2Cl)c1=O | inactive: -2.14%
62 | Cc1ccc(NC(=O)NC(C)c2c(-n3cccc3)sc(C)c2C)cc1F (centres undefined) | inactive: 4.29%
63 | O=C(Nc1cccc(C(F)(F)F)c1)c1cccnc1NCCc1ccccc1 | inactive: -87.2%
64 | O=C(Nc1cccc([N+](=O)[O-])c1)c1ccncc1 | inactive: 3.87%
65 | O=C(NCCc1ccccn1)c1cc2ccccc2o1 | inactive: 6.97%
66 | CC1(C)C(=O)N(c2ccccc2)C1c1ccccc1O (centres undefined) | inactive: -6.53%

Row | SMILES | growth rescue (activation)
67 | Cc1nc(-c2cccc(NC(=O)c3cc4cc(Br)ccc4oc3=O)c2)cs1 | inactive: -13.8%
68 | Cc1ccccc1OCC(=O)NCCCNC(=O)c1ccncc1 | inactive: -4.71%
69 | CCCSc1nc2sc3c(c2c(=O)n1CC)CC(C)(C)OC3 | inactive: 7.11%
70 | Cc1cccc(OCC(=O)NCCCNC(=O)c2ccccn2)c1 | inactive: 11.7%
71 | O=C(Cc1ccc(Br)cc1)Nc1cccc(Cl)c1 | inactive: -4.9%
72 | O=C(Cc1ccc(NS(=O)(=O)c2ccc(F)cc2)cc1)NCc1cccnc1 | inactive: -6.58%
73 | COc1cnc(-c2ccccc2)[nH]c1=O | inactive: -4.47%
74 | COc1cc(Cn2c3ccc(NC(=O)CC(C)(C)C)cc3c(=O)n2C)ccc1F | inactive: 11%
75 | Cc1ccc(S(=O)(=O)N2CCN(C(=O)c3ccc(Br)o3)CC2)c(C)c1 | inactive: 18%
76 | Cc1cccc(NC(=O)N2CCN(Cc3ccc(Cl)cc3)CC2)c1 | inactive: -6.98%
77 | CC(NS(=O)(=O)c1ccc(OCC(=O)N2CCCC2)cc1)c1ccccc1 (centres undefined) | inactive: -4.41%
78 | C=CCc1cc(OC)ccc1OCC(O)CN1CCN(c2ccc(OC)cc2)CC1 (centres undefined) | inactive: 2.23%
79 | CCn1c(CC(=O)Nc2ccccc2)nnc1SCC(=O)Nc1nnc(C)s1 | inactive: -2.37%
80 | Cc1ccc(CNC(=O)C2CCC(=O)N2Cc2ccc(F)cc2)cc1 (centres undefined) | inactive: 14.2%
81 | CN(c1ccc([N+](=O)[O-])cc1C(N)=O)C1CCCCC1 | inactive: 1.34%
82 | Cc1cccc2sc(NC(=O)c3ccc(NS(=O)(=O)c4cccs4)cc3)nc12 | inactive: 8.61%
83 | COc1ccc(CCC(C)NCC2CCCCC2)cc1 (centres undefined) | inactive: -31.1%
84 | CCn1c(SCC(=O)NC(=O)NCc2ccco2)nc2sc(C)c(C)c2c1=O | inactive: 27.8%
85 | Cc1ccc(NC(=O)CSc2nnc(C3CC3)n2CC2CCCO2)c(C)c1 (centres undefined) | inactive: -11.6%
86 | CC(C)c1nnc(NC(=O)C2CCCN2C(=O)Nc2ccccc2)s1 (centres undefined) | inactive: 3.61%
87 | COC(=O)c1ccc2c(=O)[nH]c(CSc3nnc(C(F)(F)F)n3C)nc2c1 | inactive: -12.4%
88 | COc1ccc(NC(=O)CSc2nc3nc(C)cc(C)c3c(=O)[nH]2)cc1 | inactive: -11.1%

Row | SMILES | growth rescue (activation)
89 | CS(=O)(=O)Oc1ccc2c(c1)O/C(=C\C=C\c1ccccc1)C2=O | inactive: 8.71%
90 | CCC(=O)Nc1ccccc1C(=O)OC(c1ccccc1)c1ccccc1 | inactive: 6.83%
91 | O=C(Nc1nc2ccccc2[nH]1)c1ccc(Cl)c([N+](=O)[O-])c1 | inactive: 5.49%
92 | COc1ccc(-c2nc(SC(C)C(=O)NC3CC3)n[nH]2)cc1 (centres undefined) | inactive: 20.4%
93 | CCOC(=O)c1ccc(N=C2SC(C(=O)Nc3ccc(C(=O)O)cc3)CC(=O)N2Cc2cccs2)cc1 (centres undefined) | inactive: 9.57%
94 | O=C(COC(=O)CC1c2ccccc2CCN1S(=O)(=O)c1ccccc1)Nc1ccccc1 (centres undefined) | inactive: 9.56%
95 | O=C(c1cccc([N+](=O)[O-])c1)N1CCN(c2n[nH]c(=O)[nH]c2=O)CC1 | inactive: -0.835%
96 | C/C(=N\N1CCN(Cc2ccccc2Cl)CC1)c1ccc([N+](=O)[O-])cc1 | inactive: 18.9%
97 | Cc1[nH]c2ccccc2c1C1(O)C(=O)N(Cc2ccc(Cl)cc2)c2ccccc21 (centres undefined) | inactive: 4.95%
98 | CCc1cccc(C)c1Nc1c(-c2cccc(O)c2)nc2sccn12 | inactive: 15.7%
99 | O=C(Nc1cccc(S(=O)(=O)N2CCCCCC2)c1)c1ccc2c(c1)OCO2 | inactive: 6.14%
100 | CC(=O)c1cc(F)ccc1OCC(=O)Nc1ccc2c(c1)OCO2 | inactive: 5.19%
101 | CCSc1nnc(NC(=O)c2cc(-c3ccccc3O)n[nH]2)s1 | inactive: 24%
102 | COc1ccc(C(=O)OCC(=O)Nc2c(C)cccc2C)cc1 | inactive: 22.1%
103 | CCNC(=O)C1(C)CCN(C(=O)c2cc(F)ccc2C)C1 (centres undefined) | inactive: -8.9%
104 | Cc1ccc(Sc2cc(C(=O)NCCCN(C)C)c3ccccc3n2)cc1 | inactive: -0.284%
105 | CCN(CC)S(=O)(=O)c1ccc2c(c1)N(CC(=O)Nc1ccc(NC(C)=O)cc1)C(=O)CO2 | inactive: -2.57%
106 | O=C(O)c1cccc(S(=O)(=O)Nc2ccc(Cc3ccncc3)cc2)c1 | inactive: 15.9%
107 | CC1CN(c2ccnc3cc(Cl)ccc23)CC(C)O1 (centres undefined) | inactive: 5.77%
108 | O=C(Nc1cccnc1)c1ccc(-c2ccc(Cl)cc2)o1 | inactive: -0.588%
109 | CC(=O)Nc1ccc(NC(=O)CCOc2cc(C)ccc2C)cc1 | inactive: -11.2%
